The values that follow come from publication PMC6192633.

By UniProt entry, the sequences of proteins in these tests, tags left out. Residues count along the entry.
UniProt Q9QUK6, residues 26-835: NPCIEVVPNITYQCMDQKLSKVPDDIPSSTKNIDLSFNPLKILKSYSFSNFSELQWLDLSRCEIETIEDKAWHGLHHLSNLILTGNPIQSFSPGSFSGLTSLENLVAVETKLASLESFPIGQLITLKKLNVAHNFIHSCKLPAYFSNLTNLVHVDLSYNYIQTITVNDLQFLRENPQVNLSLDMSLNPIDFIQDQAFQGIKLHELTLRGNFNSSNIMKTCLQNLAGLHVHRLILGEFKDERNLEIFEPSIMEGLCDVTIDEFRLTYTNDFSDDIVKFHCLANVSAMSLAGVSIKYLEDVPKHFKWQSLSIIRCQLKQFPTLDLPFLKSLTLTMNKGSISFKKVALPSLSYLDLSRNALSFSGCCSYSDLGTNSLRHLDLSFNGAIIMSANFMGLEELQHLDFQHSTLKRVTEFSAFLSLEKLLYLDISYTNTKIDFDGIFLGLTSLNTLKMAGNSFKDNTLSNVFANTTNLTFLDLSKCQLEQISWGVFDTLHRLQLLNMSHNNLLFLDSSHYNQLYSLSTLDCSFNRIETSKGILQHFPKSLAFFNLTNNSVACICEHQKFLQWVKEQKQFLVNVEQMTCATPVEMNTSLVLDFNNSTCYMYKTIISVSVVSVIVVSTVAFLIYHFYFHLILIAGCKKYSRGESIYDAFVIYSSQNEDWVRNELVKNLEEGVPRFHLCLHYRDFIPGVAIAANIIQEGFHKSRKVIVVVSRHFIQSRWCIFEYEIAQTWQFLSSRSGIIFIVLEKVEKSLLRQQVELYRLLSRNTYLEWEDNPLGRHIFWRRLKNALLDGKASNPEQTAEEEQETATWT
UniProt P22366: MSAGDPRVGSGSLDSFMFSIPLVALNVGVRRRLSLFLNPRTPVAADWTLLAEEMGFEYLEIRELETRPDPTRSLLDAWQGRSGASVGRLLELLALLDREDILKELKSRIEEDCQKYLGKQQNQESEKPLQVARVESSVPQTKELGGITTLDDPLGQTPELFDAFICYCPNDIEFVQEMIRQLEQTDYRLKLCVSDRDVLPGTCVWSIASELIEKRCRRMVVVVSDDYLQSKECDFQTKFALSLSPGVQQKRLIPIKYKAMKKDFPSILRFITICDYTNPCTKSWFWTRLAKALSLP
UniProt Q99JY1: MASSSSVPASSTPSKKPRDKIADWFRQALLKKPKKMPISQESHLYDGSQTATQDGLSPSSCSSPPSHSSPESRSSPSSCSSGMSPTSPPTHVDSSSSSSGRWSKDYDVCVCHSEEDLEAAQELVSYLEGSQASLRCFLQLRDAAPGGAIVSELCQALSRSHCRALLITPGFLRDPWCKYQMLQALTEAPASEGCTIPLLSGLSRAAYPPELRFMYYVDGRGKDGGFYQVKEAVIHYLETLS
UniProt Q99MB1, residues 26-905: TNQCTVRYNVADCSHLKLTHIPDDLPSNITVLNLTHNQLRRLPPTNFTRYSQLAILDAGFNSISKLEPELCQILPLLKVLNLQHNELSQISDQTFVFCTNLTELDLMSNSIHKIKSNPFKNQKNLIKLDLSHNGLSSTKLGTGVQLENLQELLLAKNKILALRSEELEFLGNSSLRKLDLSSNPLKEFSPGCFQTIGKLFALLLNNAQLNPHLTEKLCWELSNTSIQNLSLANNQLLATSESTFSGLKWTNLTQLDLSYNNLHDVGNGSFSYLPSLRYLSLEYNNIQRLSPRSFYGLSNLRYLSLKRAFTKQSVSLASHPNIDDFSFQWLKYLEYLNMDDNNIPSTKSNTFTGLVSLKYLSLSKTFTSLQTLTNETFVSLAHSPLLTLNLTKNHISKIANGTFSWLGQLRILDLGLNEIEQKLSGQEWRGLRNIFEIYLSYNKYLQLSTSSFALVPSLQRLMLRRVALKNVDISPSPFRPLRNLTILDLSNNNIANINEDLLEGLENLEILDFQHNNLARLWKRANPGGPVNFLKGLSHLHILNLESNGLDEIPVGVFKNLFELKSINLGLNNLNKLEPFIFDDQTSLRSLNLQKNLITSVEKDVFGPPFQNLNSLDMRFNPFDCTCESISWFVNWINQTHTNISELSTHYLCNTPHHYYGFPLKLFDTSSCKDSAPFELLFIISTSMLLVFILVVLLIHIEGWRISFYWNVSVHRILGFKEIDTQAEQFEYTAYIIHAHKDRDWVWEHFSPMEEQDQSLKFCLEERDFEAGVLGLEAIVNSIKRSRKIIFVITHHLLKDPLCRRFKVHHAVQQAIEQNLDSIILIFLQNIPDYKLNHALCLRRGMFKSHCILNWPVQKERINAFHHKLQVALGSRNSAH

These are yes or no findings as the source states them, for the method shown. In cells and extracts the contact can be indirect. Some entries that bind do so weakly or less than the wild type. For some assays here: Tags and fused reporters may be left off the sequences shown.

The target in experiment [1] is T1, Flag-tagged GPR108 (mouse) (UniProt Q91WD0).
T1 sequence: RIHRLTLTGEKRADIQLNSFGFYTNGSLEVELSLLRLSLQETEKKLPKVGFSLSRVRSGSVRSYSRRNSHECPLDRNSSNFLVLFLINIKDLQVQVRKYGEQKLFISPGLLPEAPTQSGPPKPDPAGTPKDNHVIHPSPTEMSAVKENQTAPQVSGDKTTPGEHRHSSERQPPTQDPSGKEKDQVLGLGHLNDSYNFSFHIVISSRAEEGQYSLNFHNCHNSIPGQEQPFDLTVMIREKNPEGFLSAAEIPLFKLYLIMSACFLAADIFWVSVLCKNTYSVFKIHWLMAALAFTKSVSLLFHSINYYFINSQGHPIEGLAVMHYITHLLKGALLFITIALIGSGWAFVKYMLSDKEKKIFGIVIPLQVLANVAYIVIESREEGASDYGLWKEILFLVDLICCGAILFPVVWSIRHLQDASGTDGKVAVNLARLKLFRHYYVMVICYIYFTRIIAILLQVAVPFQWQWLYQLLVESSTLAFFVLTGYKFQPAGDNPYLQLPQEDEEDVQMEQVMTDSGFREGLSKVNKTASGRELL
Put plainly: co-IP; HEK293 or HEK293T cells co-transfected with Flag- and HA-tagged proteins; lysis buffer 10 mM Tris pH 7.4, 100 mM NaCl, 1 mM EDTA, 1 mM EGTA, 1% Triton X-100, 10% glycerol, 0.1% SDS, 0.5% deoxycholate; anti-flag M2 agarose 2 h at 4°C; blots with anti-HA and anti-Flag (Fig 6A: cells stimulated with LPS for different times, with or without GPR108, blot with anti-MyD88).

For a further experiment, the target named is Flag-tagged TLR4 (mouse) (UniProt Q9QUK6). The experiment is described as above.

Turning to “HA-tagged MyD88 (from UniProt P22366 1-296)”, the binding entry (in experiment [1]; with Flag-tagged TLR4 (mouse)) was “binds” throughout.

Take “HA-tagged TIRAP (from UniProt Q99JY1 1-241)”: in experiment [1], the binding entry is “binds”.

Turning to “HA-tagged TLR4 (from UniProt Q9QUK6 26-835) (receptor)”, the binding result in experiment [1] is reported as “binds”.

As for “HA-tagged TLR3 (from UniProt Q99MB1 26-905) (receptor)”, in experiment [1], the binding entry is “binds”.

B1: HA-tagged TRAF6 (enzyme, UniProt P70196 1-530)
chain: MSLLNCENSCGSSQSSSDCCAAMAASCSAAVKDDSVSGSASTGNLSSSFMEEIQGYDVEFDPPLESKYECPICLMALREAVQTPCGHRFCKACIIKSIRDAGHKCPVDNEILLENQLFPDNFAKREILSLTVKCPNKGCLQKMELRHLEDHQVHCEFALVNCPQCQRPFQKCQVNTHIIEDCPRRQVSCVNCAVSMAYEEKEIHDQSCPLANIICEYCGTILIREQMPNHYDLDCPTAPIPCTFSVFGCHEKMQRNHLARHLQENTQLHMRLLAQAVHNVNLALRPCDAASPSRGCRPEDPNYEETIKQLESRLVRQDHQIRELTAKMETQSMYVGELKRTIRTLEDKVAEMEAQQCNGIYIWKIGNFGMHLKSQEEERPVVIHSPGFYTGRPGYKLCMRLHLQLPTAQRCANYISLFVHTMQGEYDSHLPWPFQGTIRLTILDQSEALIRQNHEEVMDAKPELLAFQRPTIPRNPKGFGYVTFMHLEALRQGTFIKDDTLLVRCEVSTRFDMGGLRKEGFQPRSTDAGV
Turning to B1, the binding result in experiment [1] is recorded as “binds”.

B2: LRSAM1 (protein, UniProt Q80ZI6 1-727)
chain: MPLFFRKRKPSEEARKRLEYQMCLAKEAGADDILDISKCELSEIPFGAFATCKVLQKKVLIVHTNHLTSLLPKSCSLLSLVTIKVLDLHENQLTALPDDMGQLTVLQVLNVERNQLTHLPRSIGNLLQLQTLNVKDNKLKELPDTLGELRSLRTLDISENEIQRLPQMLAHVRTLETLSLNALAMVYPPPEVCGAGTAAVQQFLCKESGLDYYPPSQYLLPVLEQDGAENTQDSPDGPASRFSREEAEWQNRFSDYEKRKEQKMLEKLEFERRLDLGQREHAELLQQSHSHKDEILQTVKQEQTRLEQDLSERQRCLDAERQQLQEQLKQTEQSIASRIQRLLQDNQRQKKSSEILKSLENERIRMEQLMSITQEETENLRQREIAAAMQQMLTESCKSRLIQMAYESQRQSLAQQACSSMAEMDKRFQQILSWQQMDQNKAISQILQESVMQKAAFEALQVKKDLMHRQIRNQIRLIETELLQLTQLELKRKSLDTETLQEMVSEQRWALSNLLQQLLKEKKQREEELHGILAELEAKSETKQENYWLIQYQRLLNQKPLSLKLQEEGMERRLVALLVELSAEHYLPLFAHHRISLDMLSRMSPGDLAKVGVSEAGLQHEILRRAQDLLAVPRVQPELKPLENEVLGALEPPTAPRELQESVRPSAPPAELDMPTSECVVCLEREAQMVFLTCGHVCCCQQCCQPLRTCPLCRQEISQRLRIYHSS
As to B2, the binding entry in experiment [1] is “no binding”.

B3: HA-tagged TLR7 (receptor, UniProt P58681 27-1050)
chain: FRWFPKTLPCEVKVNIPEAHVIVDCTDKHLTEIPEGIPTNTTNLTLTINHIPSISPDSFRRLNHLEEIDLRCNCVPVLLGSKANVCTKRLQIRPGSFSGLSDLKALYLDGNQLLEIPQDLPSSLHLLSLEANNIFSITKENLTELVNIETLYLGQNCYYRNPCNVSYSIEKDAFLVMRNLKVLSLKDNNVTAVPTTLPPNLLELYLYNNIIKKIQENDFNNLNELQVLDLSGNCPRCYNVPYPCTPCENNSPLQIHDNAFNSLTELKVLRLHSNSLQHVPPTWFKNMRNLQELDLSQNYLAREIEEAKFLHFLPNLVELDFSFNYELQVYHASITLPHSLSSLENLKILRVKGYVFKELKNSSLSVLHKLPRLEVLDLGTNFIKIADLNIFKHFENLKLIDLSVNKISPSEESREVGFCPNAQTSVDRHGPQVLEALHYFRYDEYARSCRFKNKEPPSFLPLNADCHIYGQTLDLSRNNIFFIKPSDFQHLSFLKCLNLSGNTIGQTLNGSELWPLRELRYLDFSNNRLDLLYSTAFEELQSLEVLDLSSNSHYFQAEGITHMLNFTKKLRLLDKLMMNDNDISTSASRTMESDSLRILEFRGNHLDVLWRAGDNRYLDFFKNLFNLEVLDISRNSLNSLPPEVFEGMPPNLKNLSLAKNGLKSFFWDRLQLLKHLEILDLSHNQLTKVPERLANCSKSLTTLILKHNQIRQLTKYFLEDALQLRYLDISSNKIQVIQKTSFPENVLNNLEMLVLHHNRFLCNCDAVWFVWWVNHTDVTIPYLATDVTCVGPGAHKGQSVISLDLYTCELDLTNLILFSVSISSVLFLMVVMTTSHLFFWDMWYIYYFWKAKIKGYQHLQSMESCYDAFIVYDTKNSAVTEWVLQELVAKLEDPREKHFNLCLEERDWLPGQPVLENLSQSIQLSKKTVFVMTQKYAKTESFKMAFYLSHQRLLDEKVDVIILIFLEKPLQKSKFLQLRKRLCRSSVLEWPANPQAHPYFWQCLKNALTTDNHVAYSQMFKETV
Regarding B3, the binding entry in experiment [1] is recorded as “binds”.
